According to publication PMC10668032:
Some of the results follow. At the low end of the ranking the order means little.

biological target: SIX1-Q177R homeodomain (UniProt Q15475); experiment: universal protein binding microarray; details: Universal all-10-mer PBM (8x60K, AMADID 030236), 300 nM GST-tagged protein, Alexa Fluor 488 anti-GST; buffer, salt, pH and temperature not stated; high values mean tight binding; most listed sequences are background and not binding sites; double strand, one strand shown

Sequence | binding signal [E-score]
GAAATGGA | -0.112
GTTATATA | -0.0153
AAGCGCCT | 0.0104
AATTCGGA | 0.0775
ATTAAAAC | 0.158
AAAGGACA | 0.147
GTGGAATA | 0.0558
GGCGAGGA | 0.174
GAACGGGA | -0.185
CGGAGGTC | -0.126
ATGTACAT | -0.317
CCTCGGAC | 0.0457
CGGAGCGA | -0.315
ATGAGACA | 0.159
CAGTGCAC | 0.183
CTCTCGAC | 0.125
CCCTGGCG | 0.0314
AACCCGAG | 0.127
CACATCTC | -0.173
AGTCTGAA | -0.321
AAAGGCAG | -0.096
CGTTTCAC | -0.00579
CGCAACCA | 0.0884
CACCCTCC | 0.297
CCTATCTC | -0.0145

Sequence | binding signal [E-score]
AGTGCGAG | -0.12
AGCGTGTC | 0.393
AACTCTTC | -0.0831
AGTCGTAT | -0.0908
CCAGCTGC | -0.0249
CACATCTA | -0.0476
AGCAGTGC | -0.0593
ACAAGACC | -0.2
AATTAGCC | -0.128
AAAAGGAA | -0.218
AAGTAATA | -0.214
ATGTCCCC | -0.192
GCATTCAA | -0.067
ATAGGCGC | -0.161
GACGTAGA | -0.0861
CCAACTGG | 0.00876
GAGATACC | 0.225
AAAGCCTC | -0.286
GACCCTTA | 0.0827
AGTAGGAT | 0.0282
AGGAAACC | -0.122
CACAGTCG | -0.0545
GACCATCC | -0.0863
AGTAAGAG | -0.129
ACAGTCCC | -0.147

Sequence | binding signal [E-score]
ACCTCTCC | -0.0488
ACTAATTG | -0.0211
GTCAATCA | -0.0124
CCAAGTTC | -0.088
ATATTACG | -0.165
CCCCAATC | 0.136
CCATCAGG | -0.0544
AAGCGGAG | 0.102
ACGCGCTG | 0.0974
AAAGCGTG | 0.12
ACATACTG | -0.0361
GAGGATAC | 0.235
GTGCGTAA | 0.0718
AAGGATAC | 0.275
ATACACGC | 0.396
AAACTGCA | -0.149
AGTACTGC | -0.153
CAGAATAG | 0.0233
GTAGAATA | 0.148
CACGGGAC | 0.163
GAACGGCA | -0.252
AGTATTAG | -0.0696
CAAGTTAA | -0.124
AGGGAGAT | -0.149
AAGGCACC | 0.0565

Sequence | binding signal [E-score]
TGTGAGAA | -0.0108
AGCAAAGG | 0.0309
CCGATTAG | 0.0257
CCTCGTTA | 0.0546
CCCTGTCC | 0.152
GTTGTACA | 0.223
GGTGGGCA | 0.0958
CGTATCTC | 0.0589
ATGCTATG | -0.268
GGGCGACA | 0.156
CCGGGCCA | -0.0427
GATTAACC | -0.128
ACAGCTAT | -0.131
AAGAGGAG | -0.0714
CCATGGGC | 0.0355
ATTATGTG | -0.0345
CCCCGTTA | -0.00978
CCGCAGAA | -0.216
CGGATCCC | 0.235
GCCCATTA | -0.0208
GGAGACTA | -0.163
ATAGATTC | -0.213
ATTTGGGA | -0.171
CAGGCTGC | 0.0258
CCGTCGGC | -0.032

Sequence | binding signal [E-score]
AGGACTCC | 0.0679
ATCCAGGA | -0.0748
ACCATATA | -0.0544
ATGGGTCG | 0.0821
AGGTAGCA | -0.185
CTGATCTC | -0.11
AAAGCTTC | -0.323
GCCCCACA | 0.0253
AGATGCCC | -0.218
TCGCAAGA | 0.00384
CCTGGCCG | -0.122
ATCATGAA | -0.208
GGCCCGTA | -0.0271
GAACTCTC | -0.232
ACCAGCTC | 0.097
CCATCACC | 0.15
CAACCACA | -0.0501
CGCGTGGC | -0.216
GAGCTGGC | -0.179
ACACCGAT | 0.473
AGAGATGA | -0.235
ATCACTCA | -0.037
AAGCTATG | -0.167
AAAGCCTA | -0.196
CGATGAGA | -0.0851

Sequence | binding signal [E-score]
GACGCTGC | -0.0608
CTTCTTCA | -0.116
AGTTAGGA | 0.153
ACCCGAAA | -0.0387
CGTCCAGC | -0.202
CCGGTTCC | -0.0668
CTCGTTGA | -0.00205
CTAATAGC | -0.178
ACTGATAA | 0.0964
TCGCGCCA | -0.0389
ACTTTTAC | -0.0389
AGCATACG | -0.0851
ATACACAA | 0.0649
ATCAGAAT | -0.0732
ACTATACC | 0.0917
AAAACACC | 0.437
AGGGTTGG | 0.0319
AATCCATG | -0.0667
ACTTATGG | -0.111
CACAGACG | -0.101
ATGACGTG | 0.1
GCCCGGGC | 0.0428
ATATGACC | 0.149
CCTACCCA | 0.127
GTTCTTAA | -0.21

Sequence | binding signal [E-score]
CGGTCAAC | 0.0351
CAGTCCGC | -0.357
GCTTAGGA | -0.0983
GCGTGGCC | -0.244
TCAAGGAA | -0.113
ATTAATAA | -0.221
AACGCTCA | -0.131
GTAACCGA | -0.0472
ATTTGCCC | -0.167
AGCCTAGC | -0.181
ACCTCACC | 0.0916
ATGGAAAC | -0.0389
TGGTAGAA | 0.103
AAGAAGAG | -0.0245
CACGATCG | 0.0981
CCTATTAG | -0.0965
CCCGCTGC | -0.148
CAGACTAC | -0.0151
GCGGGTGA | 0.0511
AATAGACG | -0.182
CCGCAAAG | -0.07
GCTAGGGA | -0.0684
AGGGCAAA | -0.111
CGTCCATC | -0.0863
CTACTAAA | -0.109

Sequence | binding signal [E-score]
CGACCGCA | -0.057
AGTCCCTA | -0.0799
GGGTCATA | 0.237
CGTCAGAA | -0.0258
GCGAGTAA | -0.015
ACGGCTCG | -0.0413
GGGGCACC | 0.0953
CTTATAAA | -0.0228
AGGAACCG | -0.118
AAACAATC | -0.298
AGACTCGC | -0.073
CGAGTGTA | 0.382
TATCAAGA | -0.0926
TTACAGAA | -0.285
GTTGCGTA | -0.104
CGGATATC | 0.0661
ACACCTGA | 0.448
AATGACAG | -0.191
TGACCGCA | -0.118
ATTTGTAC | -0.122
GCCGATAC | 0.138
AGGCAGGA | 0.158
GCGACTAC | 0.0791
AAGCCGGC | -0.168
AAGACTTC | -0.209

Sequence | binding signal [E-score]
CTGGTTAA | -0.11
AAATACGG | -0.117
CTATCTCC | -0.113
GATGGTAC | -0.0663
CTAGTAAC | -0.109
CCTACGCA | 0.17
AACCTGGT | 0.152
AGTACCCA | 0.175
AATTGGTC | -0.223
ATCTCAAC | 0.00286
AACACACC | 0.395
ATACTGTA | 0.0343
CAGAATGC | -0.292
GAGACCCC | 0.225
TAGCCGGA | -0.0344
AATAGGTG | 0.207
CCCGTACC | 0.0901
GTTGGATA | -0.00297
ATCCCCTG | 0.156
GTAAGTAC | -0.0262
AAGGATGA | -0.0842
ATTGGACA | 0.159
CACACCAG | 0.416
GCTTTGCC | -0.186
AACACAAC | 0.176

Sequence | binding signal [E-score]
GCCGAGAC | 0.0808
GTCTTTCA | -0.195
AAGACTGT | -0.233
ATATGATG | -0.191
CGGCGAAA | -0.074
ATATTGAT | -0.0789
CCACCTTA | 0.0504
AGATCTTA | -0.2
ACTTTCGC | -0.0664
AGAGCATG | -0.148
GATAATCA | 0.135
GATTGCCA | -0.224
CGATGTTA | 0.071
GAGGCGAA | -0.221
GGCTGTAC | -0.016
AGGCACAC | 0.203
GTCTTGCA | -0.0534
CTACACTC | 0.412
GAGCCGTA | -0.152
CGCAGGCC | -0.12
ATCGACGG | -0.0115
TAAGTTGA | 0.123
CCGCCATC | -0.118
CAGAGCCA | -0.27
AGCGCCGA | -0.257

Sequence | binding signal [E-score]
GAGTTCAA | -0.167
ACCACAGG | -0.0446
ATCGCACA | -0.0639
AGTGCTCA | 0.0592
ACCCTTCC | 0.161
CGTAACCC | 0.225
CTGGTAGC | -0.123
CCCTAGAG | 0.132
AAAACACG | 0.321
CTCACGGC | -0.169
ATTGGATC | 0.0864
CATGCCCG | -0.0916
AATTCGAT | -0.172
AACGGTAT | 0.00353
CTAGTCGA | -0.0889
CGCTCCGA | -0.0278
AAGAAAAG | -0.0297
CCCTCGTA | 0.119
GCTCAGAA | -0.125
AGAGTTCG | -0.0736
AGTAGAAG | -0.011
ACCCCGTA | 0.0953
ACTTGCAG | -0.174
ACAACTAA | -0.0135
CTGGGTAC | 0.278

Sequence | binding signal [E-score]
GATTTTAC | 0.0827
TCAGTGAA | -0.0828
AGGTTCGC | -0.105
ACACAGGT | 0.252
CCGTGGGC | 0.0182
GTATACAC | 0.411
GGCGACAA | -0.199
CAGGACCC | 0.116
AACCAGAG | -0.234
CTGAGGGA | -0.174
CCGGTCTA | -0.112
CCCTGCTC | 0.0325
CTCCCATA | -0.0252
CACTTATA | 0.124
AGAAAAAT | 0.0163
AGGCAAGG | -0.23
ATGGGCAG | -0.0776
ATAATCCG | -0.174
AGCCAGGC | -0.0654
CCCGATTC | 0.0349
CCCCCTTC | 0.21
GAATGAAA | -0.174
CAAAGGTG | 0.329
ACATTCCA | -0.195
AGTGCAAC | 0.0591

Sequence | binding signal [E-score]
ACAATAAT | -0.251
ACCGACTC | 0.204
TAGCACTA | -0.00254
AAGTTCGT | -0.0682
CACTGATA | 0.258
CAGACTCA | -0.133
GGCAAACA | 0.0177
CCGTAGCG | -0.153
CTCCACCC | 0.182
CACCCACC | 0.252
AGTCTAGC | -0.201
GATGATCA | -0.0144
CTCTTAGA | -0.134
AGCCACAC | 0.208
AGTGCGCC | -0.0576
ACGACAAT | -0.00954
GATAGAGC | -0.285
AGGCCTCA | -0.188
ACAACTCA | 0.0668
AGTCCTCC | -0.0984
TAACCACA | -0.0187
GAATTCGA | -0.137
CTGAGCAG | -0.207
TAACTCCA | 0.138
ATAACACG | 0.402

Sequence | binding signal [E-score]
AGGTGTTG | 0.448
CACGTTTA | 0.0395
ATCGGTTA | 0.0118
ACCTATCT | -0.029
CAGCCAGA | -0.217
AGTACACC | 0.481
CCTTGGAG | 0.0221
CCAAATTA | -0.176
ATAGACCC | 0.0353
ATATTGAG | -0.145
GCTTCCTA | -0.15
CCTACTGC | -0.133
CAAACTAA | -0.0502
ACAGGCAC | -0.0324
ACTCGAGC | 0.0645
ATGAGCCA | -0.122
ACATGCCA | -0.15
ACTGGTGA | -0.0176
CGATTAAA | 0.0247
